Assay results as given in the RNAGym collection of RNA variant scans (doi:10.7554/elife.90254).
The source gives no read counts; variants with many changes may rest on few reads.

B1: LINE1-full (parent)
chain: UACGUAGGUGGUUUUCCCCUGAUAGUGCUAAGGGGGCCUGGAAGUUUGGACUGGGCAGAGCUCAACACAGCGUGGCAAAGUGGCUGUGGCUAGACUGCCUCUCUGGAUUCCUCGUCACUCAGCAGGGCAUCUCUGAGAGAAAUGCC

Variants of: B1
Experiment: self-cleavage, relative activity (ratio to wild type); higher = more cleavage; in vitro, sequencing; the parent is a self-cleaving ribozyme

Variant | self-cleavage
UACGUAGGUGGUUUUCCCCUGAUAGUGCUAAGGGGGCCUGGAAGUUUGGACUGGGCAGAGCUCGACACAGCGUGGCAAAGUGGCUGUGGCCAGACUGCCUCUCUGGAUUCCUCGUCACUCAGCAGGGCAUCUCUGAGAGAGAUGCC | 0.39
UACGUAGGUGGUUUUCCCCUGAUAGUGCUAAGGGGGCCUGGAAGUUUGGACUGGGCAGAGCUCGACACAGCGUGGCAAAGUGGCUGUGGCUAGACCGCCUCUCUGGAUUCCUCGUCACUCAGCAGGGCAUCUCUGAGAGAAACGCC | 0.1
UACGUAGGUGGUUUUCCCCUGAUAGUGCUAAGGGGGCCUGGAAGUUUGGACUGGGCAGAGCUCGACACAGCGUGGCAAAGUGGCUGUGGCUAGACUGCCCCUCUGGAUUCCUCGUCACUCAGCAGGGCAACUCUGAGAGAAAUGCC | 0.26
UACGUAGGUGGUUUUCCCCUGAUAGUGCUAAGGGGGCCUGGAAGUUUGGACUGGGCAGAGCUCGACACAGCGUGGCAAAGUGGCUGUGGCUAGACUGCCUCACUGGAUUCCUCGUCACUCAGCAGGGCAUCUCCGAGAGAAAUGCC | 0.23
UACGUAGGUGGUUUUCCCCUGAUAGUGCUAAGGGGGCCUGGAAGUUUGGACUGGGCAGAGCUCGACACAGCGUGGCAAAGUGGCUGUGGCUAGACUGCCUCCUUGGAUUCCUCGUCACUCAGCAGGGCAUCUCUGAGAGAAAUGCC | 0.11
UACGUAGGUGGUUUUCCCCUGAUAGUGCUAAGGGGGCCUGGAAGUUUGGACUGGGCAGAGCUCGACACAGCGUGGCAAAGUGGCUGUGGCUAGACUGCCUCCCUGGAUUCCUCGUCAUUCAGCGGGGCAUCUCUGAGAGAAAUGCC | 0.36
UACGUAGGUGGUUUUCCCCUGAUAGUGCUAAGGGGGCCUGGAAGUUUGGACUGGGCAGAGCUCGACACAGCGUGGCAAAGUGGCUGUGGCUAGACUGCCUCUCAGGAUUCAUCGUCACUCAGCAGGGCAUCUCAGAGAGAAACGCC | 0.33
UACGUAGGUGGUUUUCCCCUGAUAGUGCUAAGGGGGCCUGGAAGUUUGGACUGGGCAGAGCUCGACACAGCGUGGCAAAGUGGCUGUGGCUAGACUGCCUCUCCGGAUUCCUCGUCACCCAGCAGGGCAUCUCUGAGAGAAAUGCC | 0.54
UACGUAGGUGGUUUUCCCCUGAUAGUGCUAAGGGGGCCUGGAAGUUUGGACUGGGCAGAGCUCGACACAGCGUGGCAAAGUGGCUGUGGCUAGACUGCCUCUCUGGACUCCUCGUCACUCAGCAAGGCAUCUCUGAGAGAAAUGCC | 0.23
UACGUAGGUGGUUUUCCCCUGAUAGUGCUAAGGGGGCCUGGAAGUUUGGACUGGGCAGAGCUCGACACAGCGUGGCAAAGUGGCUGUGGCUAGACUGCCUCUCUGGAUUCCCCGUCACUCAGCAGGGCAUCCCUGAGAGAAAUGCC | 0
UACGUAGGUGGUUUUCCCCUGAUAGUGCUAAGGGGGCCUGGAAGUUUGGACUGGGCAGAGCUCGACACAGCGUGGCAAAGUGGCUGUGGCUAGACUGCCUCUCUGGAUUCCUCGCCACUCAGCAGGGCAUCUCUGAGAGAAGUGCC | 0.27
UACGUAGGUGGUUUUCCCCUGAUAGUGCUAAGGGGGCCUGGAAGUUUGGACUGGGCAGAGCUCGACACAGCGUGGCAAAGUGGCUGUGGCUAGACUGCCUCUCUGGAUUCCUCGUCACUCAGCAGGGCACCUCUGAGUGAAAUGCC | 0.27
UACGUAGGUGGUUUUCCCCUGAUAGUGCUAAGGGGGCCUGGAAGUUUGGACUGGGCAGAGCUCGACACAGCGUGGCAAAGUGGCUGUGGCUAGACUGCCUCUCUGGAUUCCUCGUCACUCAGCAGGGCACCACUGAGAGAAAUGCC | 0.88
UACGUAGGUGGUUUUCCCCUGAUAGUGCUAAGGGGGCCUGGAAGUUUGGACUGGGCAGAGCUCUGCACAGCGUGGCAAAGUGGCUGUGGCUAGACUGCCUCUCGGGAUUCCUCGUCACUCAGCAGGGCAUCUCUGAGAGAAACGCC | 0
UACGUAGGUGGUUUUCCCCUGAUAGUGCUAAGGGGGCCUGGAAGUUUGGACUGGGCAGAGCUCUACACAGCGUGGCCAAGUGGCUGUGGCUAGACUGCCACUCUGGAUUCCUCGUCACUCAGCAGGGCAUCUCUGAGAGAAAUGCC | 0.22
UACGUAGGUGGUUUUCCCCUGAUAGUGCUAAGGGGGCCUGGAAGUUUGGACUGGGCAGAGCUCUACACAGCGUGGCGACGUGGCUGUGGCUAGACUGCCUCUCUGGAUUCCUCGUCACUCAGCAGGGCAUCUCAGAGAGAAAUGCC | 0.68
UACGUAGGUGGUUUUCCCCUGAUAGUGCUAAGGGGGCCUGGAAGUUUGGACUGGGCAGAGCUCUACACAGCGUGGCGAAGUGGCUGUGGCUAGACUGCCUCUCUGGAUUCCUCGUCACUCUGCAGGGCAUCUCUGAGAGAAAUGCC | 0.66
UACGUAGGUGGUUUUCCCCUGAUAGUGCUAAGGGGGCCUGGAAGUUUGGACUGGGCAGAGCUCUACACAGCGUGGCGAAGUGGCUGUGGCUAGACUGCCUCACUGGAUUCCUCGUCACUCAGCAGGGCAUCUCUGAGAGAAAUGCC | 0.57
UACGUAGGUGGUUUUCCCCUGAUAGUGCUAAGGGGGCCUGGAAGUUUGGACUGGGCAGAGCUCUACACAGCGUGGCUAAGUGGCUGUGGCUAGACUGCCUCUCUGGAUUCCUCGUCACUCAGCAGGGCUUCUCUGAGAGAAAUGCC | 0.43
UACGUAGGUGGUUUUCCCCUGAUAGUGCUAAGGGGGCCUGGAAGUUUGGACUGGGCAGAGCUCUACACAGCGUGGCAGAGUGGCUGUGGCUAGACUGCCUCUCUGGAUUCCUCGUCACUCAGCAGGGCAUCUCUGAGAGAAGUGCC | 0.32

Variant | self-cleavage
UACGUAGGUGGUUUUCCCCUGAUAGUGCUAAGGGGGCCUGGAAGUUUGGACUGGGCAGAGCUCUACACAGCGUGGCAAAGUGGCUGUGGCUUGACUGCCUCUCGGGAUUCCUCGUCACUCAGCAGGGCAUCUCUGAGAGAAAUGCC | 0.18
UACGUAGGUGGUUUUCCCCUGAUAGUGCUAAGGGGGCCUGGAAGUUUGGACUGGGCAGAGCUCUACACAGCGUGGCAAAGUGGCUGUGGCUAGGCUGCCCCUCUGGAUUCCUCGUCACCCAGCAGGGCAUCUCUGAGAGAAAUGCC | 0
UACGUAGGUGGUUUUCCCCUGAUAGUGCUAAGGGGGCCUGGAAGUUUGGACUGGGCAGAGCUCUACACAGCGUGGCAAAGUGGCUGUGGCUAGACUGCCUCUCUGGAUUCCUCGUCACUCCGCAGGGCAUCCCUGAGAGAAAUGCC | 0.75
UACGUAGGUGGUUUUCCCCUGAUAGUGCUAAGGGGGCCUGGAAGUUUGGACUGGGCAGAGCUCUACACAGCGUGGCAAAGUGGCUGUGGCUAGACUGCCUCUCUGGAUUCCUCGUCACUCGGCAGGGCGUCUCUGAGAGAAAUGCC | 0.51
UACGUAGGUGGUUUUCCCCUGAUAGUGCUAAGGGGGCCUGGAAGUUUGGACUGGGCAGAGCUCUACACAGCGUGGCAAAGUGGCUGUGGCUAGACUGCCUCUCUGGAUUCCUCGUCACUCAGCAGGGCGUCUCUGAGAGGAAUGCC | 0.5
UACGUAGGUGGUUUUCCCCUGAUAGUGCUAAGGGGGCCUGGAAGUUUGGACUGGGCAGAGCUCUACAAAGCGUGGCAAAGUGGCUGUGGCUAGACUGCCUCUCUGGAUUCCUCGUCGCUCAGCAGGGCAUCUCUGAGGGAAAUGCC | 0.33
UACGUAGGUGGUUUUCCCCUGAUAGUGCUAAGGGGGCCUGGAAGUUUGGACUGGGCAGAGCUCUACACAGGGUGGCAAAGUGGCUGUGGCUAGACUGCCUCUCUGGAUUCCUCGUCACUCAGCAGGGCAUCUCUGAUAGAAAUGCC | 0.09
UACGUAGGUGGUUUUCCCCUGAUAGUGCUAAGGGGGCCUGGAAGUUUGGACUGGGCAGAGCUCUACACAGCGUGGCAAAGUGGCUGUGGCUAGACUGCCUCUCUGGAUUCCUAGUCACUCAGCAGGGCGUCCCUGAGAGAAAUGCC | 0.42
UACGUAGGUGGUUUUCCCCUGAUAGUGCUAAGGGGGCCUGGAAGUUUGGACUGGGCAGAGCUCUACACAGCGUGGCAAAGUGGCUGUGUCUAGACUGCCUCUCUGAAUUCCUCGCCACUCAGCAGGGCAUCUCUGAGAGAAAUGCC | 0.02
UACGUAGGUGGUUUUCCCCUGAUAGUGCUAAGGGGGCCUGGAAGUUUGGACUGGGCAGAGCUCUACACAGCGAGGCAAAGUGGCUGUGGCUAGACUGCCUCUCUGGAUUCCUCGUCACUCAGCAGGGCACCUCUGAGAGAAACGCC | 0.7
UACGUAGGUGGUUUUCCCCUGAUAGUGCUAAGGGGGCCUGGAAGUUUGGACUGGGCAGAGCUCUACACAGCGCGGCAAAGUGGCUGUGGCUAGACUGCCUCUCUGGGUUCCUCGUCACACAGCAGGGCAUCUCUGAGAGAAAUGCC | 0.64
UACGUAGGUGGUUUUCCCCUGAUAGUGCUAAGGGGGCCUGGAAGUUUGGACUGGGCAGAGCUCUACACAGCGCGGCAAAGUGGCUGUGGCUAGACUGCCUCUCUGGAUUCCACGCCACUCAGCAGGGCAUCUCUGAGAGAAAUGCC | 0.61
UACGUAGGUGGUUUUCCCCUGAUAGUGCUAAGGGGGCCUGGAAGUUUGGACUGGGCAGAGCUCUACACAGCGGGGCAAGGUGGCUGUGGCUAGACUGCCUCUCUGGAUUCCUCGUCACUCAGCAGGGCAUCUCUGAGAGAAUUGCC | 0.12
UACGUAGGUGGUUUUCCCCUGAUAGUGCUAAGGGGGCCUGGAAGUUUGGACUGGGCAGAGCUCUACACAGCGUGGCAAAGUGGCUGUGGCUAGACAGCCUCUUUGGAUUCCUCGUCACUCAGCAGGGCAUCUCUGAGAGAAAUGCC | 0.03
UACGUAGGUGGUUUUCCCCUGAUAGUGCUAAGGGGGCCUGGAAGUUUGGACUGGGCAGAGCUCUACACAGCGUGGCAAAGUGGCUGUGGCUAGACAGCCUCUCUGGAUUCCUCGUCACCCAGCAGGGCACCUCUGAGAGGAAUGCC | 0
UACGUAGGUGGUUUUCCCCUGAUAGUGCUAAGGGGGCCUGGAAGUUUGGACUGGGCAGAGCUCUACACAGCGUGGCAAAGUGGCUGUGGCUAGACUGCCUCCCUGGAUUCCUCGCCGCUCAGCAGGGCAUCUCUGAGAGGAAUGCC | 0
UACGUAGGUGGUUUUCCCCUGAUAGUGCUAAGGGGGCCUGGAAGUUUGGACUGGGCAGAGCUCUACACAGCGUGGCAAAGUGGCUGUGGCUAGACUGCCUCUCUGGAUCCCUCGUCACUCAGCAGGGCAUAUCUGAGAGAAAUGCC | 0.42
UACGUAGGUGGUUUUCCCCUGAUAGUGCUAAGGGGGCCUGGAAGUUUGGACUGGGCAGAGCUCUACACAGCGUGGCAAAGUGGCUGUGGCUAGACUGCCUCUCUGGAUUCCCCGUCACUCAGCAGGGCAUCUCUGAAAGAAAUGCC | 0.34
UACGUAGGUGGUUUUCCCCUGAUAGUGCUAAGGGGGCCUGGAAGUUUGGACUGGGCAGAGCUCUACACAGCGUGGCAAAGUGGCUGUGGCUAGACUGCCUCUCUGGAUUCCUCGUCACUCAGCAGGGCACCUCUGAGAGAUAUGCC | 0.5
